Reference: paper PMC10485003, “Antibiotic hyper-resistance in a class I aminoacyl-tRNA synthetase with altered active site signature motif” (Nature Communications, 2023)
“And” between values parts separate entries of the source, which are not always exact repeats. Equal entries are not always repeated. Where two headings read alike, the source gives them in different places. The source gives many values for each of these; only a part stands here.

Columns and labels:
mut-GVHH TtIleRS2 = target: T1, mut-GVHH TtIleRS2 (Thermus thermophilus, UniProt P56690, G56H/H54G); type: biochemical
T1 construct: hexa-histidine tag (pET28b(+)) (N); made in house; host or cells: E. coli Rosetta2 (DE3)
T1 sequence (P56690 1-1043 H54G/G56H): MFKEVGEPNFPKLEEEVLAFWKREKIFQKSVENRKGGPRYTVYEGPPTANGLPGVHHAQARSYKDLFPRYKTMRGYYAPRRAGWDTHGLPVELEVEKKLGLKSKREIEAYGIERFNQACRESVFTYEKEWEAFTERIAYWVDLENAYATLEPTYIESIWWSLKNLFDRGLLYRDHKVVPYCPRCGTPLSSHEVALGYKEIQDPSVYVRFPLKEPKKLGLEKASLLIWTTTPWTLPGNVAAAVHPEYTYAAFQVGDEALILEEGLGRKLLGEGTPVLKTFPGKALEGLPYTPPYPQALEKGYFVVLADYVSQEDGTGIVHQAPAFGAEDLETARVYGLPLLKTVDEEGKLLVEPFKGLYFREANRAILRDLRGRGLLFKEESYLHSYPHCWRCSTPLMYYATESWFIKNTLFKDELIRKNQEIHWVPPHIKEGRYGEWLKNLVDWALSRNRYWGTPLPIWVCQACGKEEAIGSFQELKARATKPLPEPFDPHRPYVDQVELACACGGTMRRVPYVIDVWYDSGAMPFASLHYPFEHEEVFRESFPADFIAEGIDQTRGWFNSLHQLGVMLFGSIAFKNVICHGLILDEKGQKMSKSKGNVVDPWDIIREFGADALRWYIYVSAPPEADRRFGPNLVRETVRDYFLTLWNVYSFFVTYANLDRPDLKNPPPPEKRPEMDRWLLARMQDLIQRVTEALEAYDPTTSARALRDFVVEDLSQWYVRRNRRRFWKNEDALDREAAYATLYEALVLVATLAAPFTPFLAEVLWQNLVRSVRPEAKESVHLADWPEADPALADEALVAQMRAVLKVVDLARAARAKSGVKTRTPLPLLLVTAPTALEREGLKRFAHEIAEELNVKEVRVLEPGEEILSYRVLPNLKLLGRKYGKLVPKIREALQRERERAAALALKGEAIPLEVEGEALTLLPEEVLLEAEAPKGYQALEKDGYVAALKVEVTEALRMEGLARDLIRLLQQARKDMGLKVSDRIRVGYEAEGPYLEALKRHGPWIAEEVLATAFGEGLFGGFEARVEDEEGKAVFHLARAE
Method: (§1) L-Ile and ATP concentrations ranged from 1/10 KM to 10 KM values. When measuring the KI towards one of the substrates, the other was held in saturation (concentrations at least 10 KM). The aliquots of the reaction mixture (1–2.5 μl) were quenched in 2 volumes of 500 mM NaOAc pH = 4.5, 0.1% SDS, and formed ^32P-ATP was separated from the remaining ^32P-PPi by thin-layer chromatography on Polygram CEL 300 PEI UV254 TLC plates (Macherey-Nagel, cat: 801063) using 750 mM KH2PO4 pH=3.5, 4 M urea buffer. Visualization and quantification of the signals was performed using a Typhoon Phosphoimager 5 (General Electric) and accompanying ImageQuant™ TL software (SV: 10.2). The kinetic constants were determined using a global fit option of the competitive inhibition model of GraphPad Prism 6 software (SV: 6.01). All experiments were performed in triplicates. The kcat was determined by dividing the maximal velocity, VM, with the used enzyme concentration. […]
(§2) variable substrate (ATP or Ile) was varied in the range of 0.1 KM to 10 KM. The other substrate (Ile or ATP) was kept in excess at 5 to 10 KM. Data were globally fitted to the competitive inhibition model using GraphPad prism 6.01 for Windows software. The values represent the average value ± SD of three independent experiments. Source data are provided as a Source Data file.
(1 picture or pasted object on this page, not shown here)

wt-ALHH DrIleRS2 = target: T2, wt-ALHH DrIleRS2 (Deinococcus radiodurans, UniProt Q9RUP8); assay: ATP-PPi exchange assay, mupirocin inhibition of amino acid activation; type: biochemical
T2 construct: hexa-histidine tag (pET28b(+)) (N); made in house; host or cells: E. coli BL21(DE3)
Method: as §1, §2

T2 sequence (Q9RUP8 whole entry): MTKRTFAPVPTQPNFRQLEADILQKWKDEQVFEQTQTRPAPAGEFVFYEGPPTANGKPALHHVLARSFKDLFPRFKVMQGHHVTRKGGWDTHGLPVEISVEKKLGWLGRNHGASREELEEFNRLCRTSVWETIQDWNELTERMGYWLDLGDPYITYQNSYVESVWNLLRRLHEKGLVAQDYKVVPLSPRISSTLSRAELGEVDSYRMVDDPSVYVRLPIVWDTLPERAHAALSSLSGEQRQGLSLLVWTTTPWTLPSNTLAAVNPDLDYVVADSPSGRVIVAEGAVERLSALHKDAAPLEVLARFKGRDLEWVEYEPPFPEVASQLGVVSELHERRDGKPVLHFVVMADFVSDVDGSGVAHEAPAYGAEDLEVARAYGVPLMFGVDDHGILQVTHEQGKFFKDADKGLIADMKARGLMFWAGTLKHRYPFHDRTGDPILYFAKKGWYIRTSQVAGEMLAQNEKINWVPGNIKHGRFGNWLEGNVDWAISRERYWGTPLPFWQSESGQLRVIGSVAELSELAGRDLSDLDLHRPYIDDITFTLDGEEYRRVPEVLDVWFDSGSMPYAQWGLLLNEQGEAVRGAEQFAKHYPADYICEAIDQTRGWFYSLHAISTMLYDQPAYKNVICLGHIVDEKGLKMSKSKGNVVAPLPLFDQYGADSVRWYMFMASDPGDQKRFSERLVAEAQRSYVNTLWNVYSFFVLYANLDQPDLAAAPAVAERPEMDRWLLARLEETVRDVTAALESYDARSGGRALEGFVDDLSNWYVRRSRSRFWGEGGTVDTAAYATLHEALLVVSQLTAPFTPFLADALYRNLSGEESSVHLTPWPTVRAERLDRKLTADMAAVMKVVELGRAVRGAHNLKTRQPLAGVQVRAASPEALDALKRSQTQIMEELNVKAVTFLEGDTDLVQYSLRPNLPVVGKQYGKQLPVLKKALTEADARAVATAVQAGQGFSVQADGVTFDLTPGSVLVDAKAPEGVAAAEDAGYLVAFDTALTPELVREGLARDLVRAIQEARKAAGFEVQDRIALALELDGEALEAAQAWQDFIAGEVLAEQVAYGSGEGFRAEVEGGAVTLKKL

C/C(=C\C(=O)OCCCCCCCCC(=O)O)C[C@@H]1OC[C@H](C[C@@H]2O[C@H]2[C@@H](C)[C@H](C)O)[C@@H](O)[C@H]1O [mupirocin]
initial velocity vo (mut-GVHH TtIleRS2; c(mupirocin) 100.0 μM, c(ATP) 2.5 mM): 0.00926 mM/min and 0.01048 mM/min and 0.01057 mM/min | initial velocity vo (mut-GVHH TtIleRS2; c(mupirocin) 100.0 μM, c(ATP) 5.0 mM): 0.01673 mM/min and 0.01798 mM/min and 0.01705 mM/min | initial velocity vo (mut-GVHH TtIleRS2; c(mupirocin) 100.0 μM, c(ATP) 10.0 mM): 0.02922 mM/min and 0.02793 mM/min and 0.02936 mM/min | initial velocity vo (mut-GVHH TtIleRS2; c(mupirocin) 100.0 μM, c(ATP) 15.0 mM): 0.03669 mM/min and 0.03638 mM/min and 0.0343 mM/min | initial velocity vo (mut-GVHH TtIleRS2; c(mupirocin) 100.0 μM, c(Ile) 5.0 μM): 0.00168 mM/min and 0.00177 mM/min and 0.00091 mM/min | initial velocity vo (mut-GVHH TtIleRS2; c(mupirocin) 100.0 μM, c(Ile) 15.0 μM): 0.00508 mM/min and 0.00303 mM/min | initial velocity vo (mut-GVHH TtIleRS2; c(mupirocin) 100.0 μM, c(Ile) 50.0 μM): 0.01267 mM/min and 0.01331 mM/min and 0.00968 mM/min | initial velocity vo (mut-GVHH TtIleRS2; c(mupirocin) 100.0 μM, c(Ile) 125.0 μM): 0.02408 mM/min and 0.02414 mM/min and 0.02288 mM/min | initial velocity vo (mut-GVHH TtIleRS2; c(mupirocin) 100.0 μM, c(Ile) 250.0 μM): 0.03327 mM/min and 0.03202 mM/min and 0.03416 mM/min | initial velocity vo (mut-GVHH TtIleRS2; c(mupirocin) 100.0 μM, c(Ile) 500.0 μM): 0.04115 mM/min and 0.04051 mM/min and 0.04157 mM/min | initial velocity vo (mut-GVHH TtIleRS2; c(mupirocin) 200.0 μM, c(ATP) 0.5 mM): 0.00187 mM/min and 0.00097 mM/min and 0.00147 mM/min | initial velocity vo (mut-GVHH TtIleRS2; c(mupirocin) 200.0 μM, c(ATP) 1.0 mM): 0.00234 mM/min and 0.00255 mM/min and 0.00233 mM/min | initial velocity vo (mut-GVHH TtIleRS2; c(mupirocin) 200.0 μM, c(ATP) 2.5 mM): 0.00592 mM/min and 0.00584 mM/min and 0.00549 mM/min | initial velocity vo (mut-GVHH TtIleRS2; c(mupirocin) 200.0 μM, c(ATP) 5.0 mM): 0.01078 mM/min and 0.01084 mM/min and 0.01053 mM/min | initial velocity vo (mut-GVHH TtIleRS2; c(mupirocin) 200.0 μM, c(ATP) 10.0 mM): 0.02019 mM/min and 0.01992 mM/min | initial velocity vo (mut-GVHH TtIleRS2; c(mupirocin) 200.0 μM, c(ATP) 15.0 mM): 0.0254 mM/min and 0.02596 mM/min and 0.02532 mM/min | initial velocity vo (mut-GVHH TtIleRS2; c(mupirocin) 200.0 μM, c(Ile) 15.0 μM): 0.002918 mM/min and 0.00307 mM/min and 0.004774 mM/min | initial velocity vo (mut-GVHH TtIleRS2; c(mupirocin) 200.0 μM, c(Ile) 50.0 μM): 0.009512 mM/min and 0.01039 mM/min | initial velocity vo (mut-GVHH TtIleRS2; c(mupirocin) 200.0 μM, c(Ile) 125.0 μM): 0.01831 mM/min and 0.01883 mM/min and 0.01954 mM/min | initial velocity vo (mut-GVHH TtIleRS2; c(mupirocin) 200.0 μM, c(Ile) 250.0 μM): 0.02591 mM/min and 0.02913 mM/min and 0.02967 mM/min | initial velocity vo (mut-GVHH TtIleRS2; c(mupirocin) 200.0 μM, c(Ile) 500.0 μM): 0.03617 mM/min and 0.03736 mM/min and 0.03824 mM/min | initial velocity vo (wt-ALHH DrIleRS2; c(mupirocin) 2.0 mM, c(Ile) 80.0 μM): 0.02915 mM/min and 0.02832 mM/min and 0.02988 mM/min | initial velocity vo (wt-ALHH DrIleRS2; c(mupirocin) 2.0 mM, c(Ile) 200.0 μM): 0.03984 mM/min and 0.03947 mM/min and 0.04135 mM/min | initial velocity vo (wt-ALHH DrIleRS2; c(mupirocin) 2.0 mM, c(Ile) 500.0 μM): 0.04995 mM/min and 0.04848 mM/min and 0.04925 mM/min | initial velocity vo (wt-ALHH DrIleRS2; c(mupirocin) 5.0 mM, c(ATP) 0.5 mM): 0.02368 mM/min and 0.02258 mM/min and 0.02421 mM/min | initial velocity vo (wt-ALHH DrIleRS2; c(mupirocin) 5.0 mM, c(Ile) 80.0 μM): 0.03021 mM/min and 0.03043 mM/min and 0.03177 mM/min | initial velocity vo (wt-ALHH DrIleRS2; c(mupirocin) 5.0 mM, c(Ile) 200.0 μM): 0.04197 mM/min and 0.04271 mM/min and 0.0436 mM/min | initial velocity vo (wt-ALHH DrIleRS2; c(mupirocin) 5.0 mM, c(Ile) 500.0 μM): 0.04802 mM/min and 0.04908 mM/min | initial velocity vo (wt-ALHH DrIleRS2; c(mupirocin) 10.0 mM, c(ATP) 0.5 mM): 0.01945 mM/min and 0.01917 mM/min and 0.0196 mM/min | initial velocity vo (wt-ALHH DrIleRS2; c(mupirocin) 10.0 mM, c(Ile) 200.0 μM): 0.0353 mM/min and 0.03447 mM/min and 0.03555 mM/min | initial velocity vo (wt-ALHH DrIleRS2; c(mupirocin) 10.0 mM, c(Ile) 500.0 μM): 0.04467 mM/min and 0.0461 mM/min and 0.04563 mM/min | initial velocity vo (wt-ALHH DrIleRS2; c(mupirocin) 15.0 mM, c(ATP) 0.5 mM): 0.01368 mM/min and 0.01451 mM/min and 0.01402 mM/min | initial velocity vo (wt-ALHH DrIleRS2; c(mupirocin) 20.0 mM, c(ATP) 0.5 mM): 0.01231 mM/min and 0.01198 mM/min and 0.01278 mM/min | initial velocity vo (wt-ALHH DrIleRS2; c(mupirocin) 25 mM, c(ATP) 0.5 mM): 0.00879 mM/min and 0.00979 mM/min and 0.00914 mM/min | initial velocity vo (wt-ALHH DrIleRS2; c(mupirocin) 25.0 mM, c(Ile) 80.0 μM): 0.0147 mM/min and 0.0141 mM/min | initial velocity vo (wt-ALHH DrIleRS2; c(mupirocin) 25.0 mM, c(Ile) 200.0 μM): 0.0269 mM/min and 0.02755 mM/min and 0.02528 mM/min | initial velocity vo (wt-ALHH DrIleRS2; c(mupirocin) 25.0 mM, c(Ile) 500.0 μM): 0.0392 mM/min and 0.0375 mM/min and 0.03647 mM/min
